The source gives no read counts; variants with many changes may rest on few reads.
B1: LINE1-mini (parent)
chain: GGCAGAGCUCAACACAGCGUGGCAAAGUGGCUGUGGCUAGACUGCC

Variants of: B1
Experiment: self-cleavage, relative activity (ratio to wild type); higher = more cleavage; in vitro, sequencing; the parent is a self-cleaving ribozyme

Row | Variant | self-cleavage
1 | GGCAGAGCUCAACACAGCGUGGCAAAGUGGCUGUGGCCAGACCGAC [U38C U43C C45A] | 0.07
2 | GGCAGAGCUCAACACAGCGUGGCAAAGUGGCUGUGGCGAGCCUGGC [U38G A41C C45G] | 0.02
3 | GGCAGAGCUCAACACAGCGUGGCAAAGUGGCUGUGGCGAGCCUACA [U38G A41C G44A C46A] | 0.04
4 | GGCAGAGCUCAACACAGCGUGGCAAAGUGGCUGUGGCGAGUCUGCU [U38G A41U C46U] | 0.04
5 | GGCAGAGCUCAACACAGCGUGGCAAAGUGGCUGUGGCGAUACUGUC [U38G G40U C45U] | 0.06
6 | GGCAGAGCUCAACACAGCGUGGCAAAGUGGCUGUGGCGAGACGGCA [U38G U43G C46A] | 0.04
7 | GGCAGAGCUCAACACAGCGUGGCAAAGUGGCUGUGGCUCGACUGAA [A39C C45A C46A] | 0.14
8 | GGCAGAGCUCAACACAGCGUGGCAAAGUGGCUGUGGCUCCAAGGCC [A39C G40C C42A U43G] | 0.03
9 | GGCAGAGCUCAACACAGCGUGGCAAAGUGGCUGUGGCUCCACUGCA [A39C G40C C46A] | 0.07
10 | GGCAGAGCUCAACACAGCGUGGCAAAGUGGCUGUGGCUCUACUUCC [A39C G40U G44U] | 0.03
11 | GGCAGAGCUCAACACAGCGUGGCAAAGUGGCUGUGGCUGGUCCGCA [A39G A41U U43C C46A] | 0.01
12 | GGCAGAGCUCAACACAGCGUGGCAAAGUGGCUGUGGCUGAACUCCU [A39G G40A G44C C46U] | 0.01
13 | GGCAGAGCUCAACACAGCGUGGCAAAGUGGCUGUGGCUGUAGUGCC [A39G G40U C42G] | 0.29
14 | GGCAGAGCUCAACACAGCGUGGCAAAGUGGCUGUGGCUUGUCUGGC [A39U A41U C45G] | 0.36
15 | GGCAGAGCUCAACACAGCGUGGCAAAGUGGCUGUGGCUUGAGCGCC [A39U C42G U43C] | 0.01
16 | GGCAGAGCUCAACACAGCGUGGCAAAGUGGCUGUGGCUUGACUGUU [A39U C45U C46U] | 0.16
17 | GGCAGAGCUCAACACAGCGUGGCAAAGUGGCUGUGGCUUAUCUGCC [A39U G40A A41U] | 0.62
18 | GGCAGAGCUCAACACAGCGUGGCAAAGUGGCUGUGGCUUCACUGGC [A39U G40C C45G] | 0.06
19 | GGCAGAGCUCAACACAGCGUGGCAAAGUGGCUGUGGCUAAUCUCCC [G40A A41U G44C] | 0.09
20 | GGCAGAGCUCAACACAGCGUGGCAAAGUGGCUGUGGCUAAAAUGAG [G40A C42A C45A C46G] | 0.06
21 | GGCAGAGCUCAACACAGCGUGGCAAAGUGGCUGUGGCUAAAAUGCA [G40A C42A C46A] | 0.09

Row | Variant | self-cleavage
22 | GGCAGAGCUCAACACAGCGUGGCAAAGUGGCUGUGGCUAAACUACG [G40A G44A C46G] | 0.03
23 | GGCAGAGCUCAACACAGCGUGGCAAAGUGGCUGUGGCUACGCUACC [G40C A41G G44A] | 0.03
24 | GGCAGAGCUCAACACAGCGUGGCAAAGUGGCUGUGGCUACACUUAC [G40C G44U C45A] | 0
25 | GGCAGAGCUCAACACAGCGUGGCAAAGUGGCUGUGGCUAUGCUGCA [G40U A41G C46A] | 0.02
26 | GGCAGAGCUCAACACAGCGUGGCAAAGUGGCUGUGGCUAUGCUGCU [G40U A41G C46U] | 0.15
27 | GGCAGAGCUCAACACAGCGUGGCAAAGUGGCUGUGGCUAUACUACA [G40U G44A C46A] | 0.05
28 | GGCAGAGCUCAACACAGCGUGGCAAAGUGGCUGUGGCUAUACUCCA [G40U G44C C46A] | 0.09
29 | GGCAGAGCUCAACACAGCGUGGCAAAGUGGCUGUGGCUAUACGGGC [G40U U43G C45G] | 0.02
30 | GGCAGAGCUCAACACAGCGUGGCAAAGUGGCUGUGGCUAGCCUAGA [A41C G44A C45G C46A] | 0.05
31 | GGCAGAGCUCAACACAGCGUGGCAAAGUGGCUGUGGCUAGCCUUUC [A41C G44U C45U] | 0.06
32 | GGCAGAGCUCAACACAGCGUGGCAAAGUGGCUGUGGCUAGGCCCCC [A41G U43C G44C] | 0.01
33 | GGCAGAGCUCAACACAGCGUGGCAAAGUGGCUGUGGCUAGUAAGCC [A41U C42A U43A] | 0.03
34 | GGCAGAGCUCAACACAGCGUGGCAAAGUGGCUGUGGCUAGUGUACC [A41U C42G G44A] | 0.3
35 | GGCAGAGCUCAACACAGCGUGGCAAAGUGGCUGUGGCUAGUCAUCC [A41U U43A G44U] | 0.15
36 | GGCAGAGCUCAACACAGCGUGGCAAAGUGGCUGUGGCUAGAGAGAC [C42G U43A C45A] | 0.02
37 | GGCAGAGCUCAACACAGCGUGGCAAAGUGGCUGUGGCUAGAUUGAA [C42U C45A C46A] | 0.05
38 | GGCAGAGCUCAACACAGCGUGGCAAAGUGGCUGUGGCUAGAUUGGU [C42U C45G C46U] | 0.06
39 | GGCAGAGCUCAACACAGCGUGGCAAAGUGGCUGUGGCUAGACAUCU [U43A G44U C46U] | 0.13
40 | GGCAGAGCUCAACACAGCGUGGCAAAGUGGCUGUGGCUAGACUCGG [G44C C45G C46G] | 0.05
41 | GGCAGAGCUCAACACAGCGUGGCAAAGUGGCUGUGGCUAGACUUAA [G44U C45A C46A] | 0.07
